# Experimental data: PubChem BioAssay AID485344 (National Center for Advancing Translational Sciences (NCATS), 2010)
# Out of some 340,000 compounds screened, about 6,900 (2%) were called active. Cut-off read from the data, not from the text of the source: active = inhibition above about 30%; inactive = below that, where a call was filed. The list shows a part of the results, in another mix than the full data. Where no call is shown, the source filed none.
# Biological target: D(2) dopamine receptor (Homo sapiens) (UniProt P14416)
# Sequence of UniProt P14416 (P14416 whole entry, looked up): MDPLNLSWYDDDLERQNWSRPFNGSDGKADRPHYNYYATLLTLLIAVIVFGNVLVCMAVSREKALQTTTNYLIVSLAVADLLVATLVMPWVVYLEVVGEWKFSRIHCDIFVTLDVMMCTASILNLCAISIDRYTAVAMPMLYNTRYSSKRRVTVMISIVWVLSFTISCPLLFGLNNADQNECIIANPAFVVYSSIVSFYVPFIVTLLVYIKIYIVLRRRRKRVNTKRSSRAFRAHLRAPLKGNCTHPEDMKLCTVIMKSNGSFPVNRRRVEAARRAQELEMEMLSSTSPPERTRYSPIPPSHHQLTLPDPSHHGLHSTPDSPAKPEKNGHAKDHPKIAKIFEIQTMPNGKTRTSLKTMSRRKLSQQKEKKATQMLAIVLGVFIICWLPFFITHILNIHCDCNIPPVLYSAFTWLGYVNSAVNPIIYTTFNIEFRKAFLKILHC
# Test: HTS Assay for Allosteric Antagonists of the Human D2 Dopamine Receptor: Primary Screen for Antagonists; note: 0% is about no effect
# Details: HEK293 TREx D2 cells, calcium flux, dopamine EC80; at 10 µM; stronger effect = higher value
# In short: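 Overnight-induced (tetracycline, 30 C) HEK293 T-REx cells carrying force-coupled D2 receive a no-wash calcium dye, then compound, then EC80 dopamine at 180 s; signals are read kinetically throughout.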
row,SMILES,inhibition
1,COc1cc(NC(=O)Cn2c(=O)nc(-c3ccccc3F)c3cc(Cl)ccc32)cc(OC)c1,8.59%
2,CC1CCCCN1c1nc(-c2ccc(C(C)(C)C)cc2)nc2ccccc12 (configuration not stated),-17.8%
3,CCN(C(=O)Cn1cc(C(=O)c2ccc(F)cc2)c(=O)c2ccc(C)nc21)c1cccc(C)c1,2.31%
4,COC(=O)c1ccccc1NC(=O)Cn1nc(C(F)(F)F)c2c1CCCC2,-0.759%
5,CCOc1ccc(C(=O)N2CCC(c3ccncc3)CC2)cc1,0.262%
6,CCOc1ccccc1C(=O)Nc1nnc(COC)s1,-10.5%
7,CCN(CC)S(=O)(=O)c1ccc2c(c1)c(=O)c(C(=O)NCc1ccccc1OC)cn2C,18.9%
8,Cc1ccc(C(=O)N2CCc3cc(CNC(=O)c4ccnn4C)ccc32)cc1,-3.31%
9,O=C1/C(=C/c2ccc(Cl)cc2)SC(=S)N1CCC(=O)N1CCCCC1CCO (configuration not stated),active: 31%
10,Cc1cn(C)c(CC(=O)N2CCN(c3ccc(F)cc3)CC2)c1C(=O)O,1.01%
11,Cc1cc(NS(=O)(=O)c2c(C)[nH]c(=O)[nH]c2=O)ccc1Br,active: 40.8%
12,Cc1ccc(NS(=O)(=O)c2ccc3c(c2)NC(=O)CCS3)cc1F,3.19%
13,O=C(NCc1ccc2c(c1)CCN2C(=O)c1ccccc1)c1ccc(Br)o1,12.4%
14,COc1ccccc1N1CCN(c2cc(C)nc3c(-c4ccc(Cl)cc4)c(C)nn23)CC1,15.1%
15,COc1cccc(-c2[nH]c3c(c2-c2c(-n4cccc4)n(C)c(=O)[nH]c2=O)c(=O)[nH]c(=O)n3C)c1,-9.99%
16,COCCOC(=O)C1=C(C)N=C2SCCC(=O)N2C1c1ccc(OCc2ccccc2)c(OC)c1 (configuration not stated),6.32%
17,COCCCNc1nc2c(c(=O)n(C)c(=O)n2C)n1Cc1ccccc1,6.68%
18,COCCNC(=O)CCSc1nc(-c2ccc3c(c2)OCO3)cc(C(F)(F)F)n1,2.67%
19,CCOC(=O)/C=c1\s/c(=C\c2ccc3c(c2)OCCO3)c(=O)n1CC(=O)NCC1CCCO1 (configuration not stated),active: 55%
20,CCc1nnc2c(NCc3cccc(OC)c3)nc3ccccc3n12,5.5%
21,Cc1ccc(N2CC(c3nnc(Cc4ccccc4Cl)o3)CC2=O)cc1 (configuration not stated),17%
22,COc1ccccc1Cc1nc2ccccc2nc1SCC(=O)Nc1ccccc1C(F)(F)F,9.78%
23,COc1ccc(-c2nc3c(C#N)c[nH]n3c2NC2CCCC2)cc1,6.01%
24,COc1ccc(S(=O)(=O)n2nc(-c3ccco3)nc2NCc2ccc(OC)c(OC)c2)cc1,2.96%

row,SMILES,inhibition
1,COc1ccc(N(CC(=O)Nc2ccc3c(c2)OCO3)S(=O)(=O)c2ccc(C)cc2)cc1OC,active: 54.3%
2,COc1ccc(N(C(=O)c2ccc(Cl)cc2)S(=O)(=O)c2ccc(C)cc2)cc1,7.52%
3,CCC1CN(S(=O)(=O)c2ccc3c(c2)NC(=O)CC(=O)N3)c2cc(Cl)ccc2O1 (configuration not stated),-4.34%
4,Cc1cccc(N2CCN(C(=O)CCC(=O)NNc3nc4ccccc4c4nc(C)nn34)CC2C)c1 (configuration not stated),-7.76%
5,Cn1c(=O)c2c(-c3ccccc3Cl)n(Cc3ccc(Cl)cc3)cc2n(C)c1=O,12.7%
6,COc1cc(C2c3c(-c4c(C)cc(C)cc4O)n[nH]c3C(=O)N2CCCOC(C)C)cc(OC)c1OC (configuration not stated),-20.1%
7,CCc1ccccc1NC(=O)CN1C(=O)COc2ccc(S(=O)(=O)Nc3ccccc3)cc21,0.824%
8,CCc1ccccc1NC(=O)N1CCc2cc(OC)c(OC)cc2C1CC(=O)OC (configuration not stated),2.6%
9,O=C(COC(=O)c1ccc(O)cc1)Nc1ccc(OC(F)F)cc1,active: 31.8%
10,Cc1ccc(NC(=O)Cn2c(=O)n(CCCS(=O)(=O)C3CCCCC3)c(=O)c3ccccc32)cc1F,-8.45%
11,COc1ccc(S(=O)(=O)c2cc3cc(OC)ccc3oc2=O)cc1,3.99%
12,CCOc1ccc(CNC(=O)c2cc3c(s2)-c2ccccc2OC3)cc1,-21.9%
13,COc1cccc(-n2c(SCC(=O)N3CCCc4ccccc43)nc3c([nH]c4ccccc43)c2=O)c1,-11.7%
14,COc1cc(NC(=O)NC(C)c2c(-n3cccc3)sc3c2CCN(C)C3)cc(OC)c1 (configuration not stated),0.694%
15,COC1CCCCC1NS(=O)(=O)c1ccc(Cl)cc1 (configuration not stated),active: 30.9%
16,CCCOc1ccc(CNC(=O)Cn2cc3c(n2)-c2c(oc(C(=O)N4CCOCC4)c2C)CC3)cc1,-9.51%
17,CCc1ccc(S(=O)(=O)NCc2nc3cccnc3n2Cc2ccccc2Cl)cc1,-5.4%
18,COc1ccc(Cl)cc1NC(=O)Cn1c(=O)n(CCCC(=O)NCCc2ccc(OC)c(OC)c2)c(=O)c2ccccc21,-3.84%
19,O=C(NCCC1=CCCCC1)C1CCN(c2nnc(-n3cccc3)s2)CC1,active: 47.8%
20,O=C(CCSCc1cccc(F)c1)NCc1ccccc1,0.168%
21,CCOc1ccccc1NC(=O)C(=O)c1cc(C)n(-c2ccc(F)cc2)c1C,-5.32%
22,CCOc1ccc(-n2cc(-c3ccccc3)c3c(N4CCC(C)CC4)ncnc32)cc1,-21.4%
23,CCS(=O)(=O)c1nc(S(=O)(=O)c2ccc(C)cc2)c(NC(C)c2ccccc2)s1 (configuration not stated),14.6%
